Experimental findings from publication PMC12109561, “LPS2336, a New TREK-1 Channel Activator Identified by High Throughput Screening” (Biomolecules, 2025) are described below.

One series addresses T1, hTREK-1 (Homo sapiens, UniProt O95069).
T1 sequence (O95069 1-422 isoform O95069-3): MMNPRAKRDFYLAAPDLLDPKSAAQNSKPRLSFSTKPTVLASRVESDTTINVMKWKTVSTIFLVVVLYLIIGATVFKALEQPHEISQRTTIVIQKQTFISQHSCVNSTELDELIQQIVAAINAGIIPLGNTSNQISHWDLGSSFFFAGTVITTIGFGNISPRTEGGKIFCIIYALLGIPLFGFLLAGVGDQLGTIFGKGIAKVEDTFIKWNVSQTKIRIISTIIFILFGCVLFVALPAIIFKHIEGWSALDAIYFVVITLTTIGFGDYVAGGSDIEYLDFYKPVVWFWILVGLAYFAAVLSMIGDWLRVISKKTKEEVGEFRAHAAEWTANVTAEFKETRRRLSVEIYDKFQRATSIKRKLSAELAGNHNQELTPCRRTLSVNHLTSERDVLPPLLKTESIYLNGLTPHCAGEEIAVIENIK
To be noted: 10 µM.

Another series has as its system CD1 mice. Nature of the series: Horizontal bar test in CD1 mice. The series is classed as in vivo, mouse. The note with it: i.p. 50 mg/kg, 15 min before the test. An excerpt:
A 13 cm long, 2 mm diameter metal bar was placed horizontally between 2 rods at a 30 cm height. To evaluate the general wakefulness of animals, and reveal a potential sedative effect of tested compounds, mice were lifted by the tail and placed close to the bar so that they naturally grab it with both forepaws. After gently releasing the tail, the time taken by mice to climb on the bar (grabbing it with their four paws) was monitored.
To search for possible adverse effects induced by LPS2336 in vivo, we submitted CD1 mice to different confounding tests aiming at characterizing motor coordination, balance, muscle strength and spontaneous locomotor activity. […] To assess the contribution of TREK-1 to this adverse effect, we submitted TREK-1 knock-out mice (which are of the C57Bl6/J background) to the same test, 15 min following the injection of 50 mg/kg LPS2336. […] We finally submitted the mice to a third test consisting in observing their spontaneous locomotion in an open arena (open field test). […] Finally, we monitored the body temperature of mice for 45 min after intraperitoneal injection of LPS2336 at 40 mg/kg and could observe hypothermia in both WT and TREK-1 KO (−2.4 and −2.6 °C, respectively) following LPS2336 treatment (Figure 7F,G).

As for `c1ccc(-c2nn[nH]n2)c(Nc2cccc3c2CCCC3)c1` [BL-1249, reference compound], at hTREK-1, the “fluorescence (ΔFmax/F0) in HEK-hTREK-1 cells” value is recorded as “strong increase in fluorescence”. Take `N#CCN1CCC(Cc2ccccc2)CC1` [LPS2336]: the “time to climb on horizontal bar” value in the series on CD1 mice is “took longer to climb”.
